Results on 49 compounds are retold here after article PMC6919601, “Identification of Plasmodium dipeptidyl aminopeptidase allosteric inhibitors by high throughput screening” (PLoS ONE, 2019).

About 230 (0.21%) of roughly 110,000 compounds showed an effect of 50% or more. Some of the results follow.
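Note: 30 min substrate incubation versus DMSO and 10 µM JCP410 controls.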

For the experiment, the target named is DPAP1 (Plasmodium falciparum, UniProt Q8IIJ9). Put plainly: primary screen, percent inhibition; read by cleavage of a fluorogenic dipeptide substrate; higher = more effect of the substance. More on the design: species or system P. falciparum D10 trophozoite lysates; single well.
DPAP1, sequence (Q8IIJ9 whole entry, looked up): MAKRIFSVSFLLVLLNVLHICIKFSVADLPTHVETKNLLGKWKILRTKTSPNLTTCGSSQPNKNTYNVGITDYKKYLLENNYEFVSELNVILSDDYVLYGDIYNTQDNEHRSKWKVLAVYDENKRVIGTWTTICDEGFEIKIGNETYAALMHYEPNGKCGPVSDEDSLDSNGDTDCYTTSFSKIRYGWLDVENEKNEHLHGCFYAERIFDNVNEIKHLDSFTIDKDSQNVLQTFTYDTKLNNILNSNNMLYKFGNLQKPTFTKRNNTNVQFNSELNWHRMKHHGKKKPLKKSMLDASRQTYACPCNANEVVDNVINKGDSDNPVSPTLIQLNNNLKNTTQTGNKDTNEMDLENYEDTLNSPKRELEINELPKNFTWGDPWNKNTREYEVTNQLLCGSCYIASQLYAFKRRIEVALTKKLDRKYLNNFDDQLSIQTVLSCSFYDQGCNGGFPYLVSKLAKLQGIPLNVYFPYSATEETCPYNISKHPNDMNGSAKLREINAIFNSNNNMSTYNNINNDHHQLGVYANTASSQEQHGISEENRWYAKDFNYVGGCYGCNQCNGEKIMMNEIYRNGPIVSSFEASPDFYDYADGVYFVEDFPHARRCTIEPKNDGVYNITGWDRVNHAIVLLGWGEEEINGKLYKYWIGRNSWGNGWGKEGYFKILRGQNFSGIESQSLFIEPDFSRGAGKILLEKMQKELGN
Regarding `COCc1[nH]nc2c1C(c1ccc(Cl)cc1)C(C#N)=C(N)O2` (stereo not shown), the “% Inhibition @ 10 uM” value came to 2.01%.
Take `Cc1ccccc1NC1SC(=O)N(Cc2cccc(C(=O)O)c2)C1=O` (stereo not shown): the “% Inhibition @ 10 uM” value was -10.2%.
With `COc1ccc(N(CC(=O)Nc2ccc3ccccc3c2)S(C)(=O)=O)cc1` the figure was 1.02%; with `O=C(CCCCC(=O)Nc1ccc(Cl)cc1)Nc1ccc(Cl)cc1`, 0.536%.
On to `C=CCc1ccccc1OCc1nc2ccccc2[nH]1`, for which the “% Inhibition @ 10 uM” value is reported as -2.92%.
Consider `Cc1ccccc1CN1CCN(c2ncnc3c2cnn3Cc2ccc(Cl)cc2)CC1`, for which the “% Inhibition @ 10 uM” value is recorded as 4.77%.
For the compound `CC(NC(=O)Cn1ncc2c3ccccc3n(C)c2c1=O)c1ccccc1` (stereo not shown), the “% Inhibition @ 10 uM” value is on record as -3.67%.
`Cc1sc(NC(=O)c2ccc(F)cc2)c(CN2CCN(C(=O)c3ccco3)CC2)c1C`: the “% Inhibition @ 10 uM” value is recorded as -4.72%.
On to `N#CC1=C(N)OC2=C(C(=O)CC(c3ccccc3)C2)C1c1ccc(-c2ccccc2)cc1` (stereo not shown), for which the “% Inhibition @ 10 uM” value is given as 0.317%.
For `COc1cccc(CN(C(=O)c2cc3ccccc3oc2=O)C2CCS(=O)(=O)C2)c1` (stereo not shown), the “% Inhibition @ 10 uM” value worked out at 0.366%.
On to `C=CCNC(=O)C(C)Sc1ccc(C)cc1` (stereo not shown), for which the “% Inhibition @ 10 uM” value is -0.996%.
As for `O=C(O)CCCN1C(=O)S/C(=C\C=C\c2ccccc2)C1=O`, the “% Inhibition @ 10 uM” value is listed as -1.92%.
On to `CC(C)COc1ccc(C(=O)Nc2nnc(S(=O)(=O)N3CCC(C)CC3)s2)cc1`, for which the “% Inhibition @ 10 uM” value is given as -3.51%.
As to `COC(=O)C1=C(O)/C(=C/c2ccc(O)cc2)N=C1C`, the “% Inhibition @ 10 uM” value was -1.6%.
For `CCc1ccc(-c2csc(-c3cccnc3)n2)cc1` the value was -0.185%; for `COc1cccc(-c2noc(-c3cccnc3)n2)c1`, -8.21%.
Consider `O=C(c1ccccc1F)N1CCN(S(=O)(=O)c2ccc3c(c2)OCCO3)CC1`, for which the “% Inhibition @ 10 uM” value is 0.238%.
Take `Cc1cc(C)cc(NC(=O)CN(CCc2ccccc2)S(C)(=O)=O)c1`: the “% Inhibition @ 10 uM” value is 1.62%.
Regarding `Cc1ccc2oc(=O)c3cnn(CC(=O)N4CCN(Cc5ccc6c(c5)OCO6)CC4)c3c2c1`, the “% Inhibition @ 10 uM” value is on record as 1.62%.
For `COc1cc(C2=NOC(C(=O)NC3CCCC3)C2)cc(OC)c1OC` (stereo not shown) the value was -2.16%; for `Cc1cccc(C)c1NC(=O)CSCC(=O)Nc1ccc2ccccc2c1`, -3.26%.
On to `Cc1ccc(-c2[nH]nc3nc(-c4cc(Cl)ccc4O)cc(C(=O)O)c23)cc1`, for which the “% Inhibition @ 10 uM” value came to 6.13%.
On to `COCCCNC(=O)C1CCN(c2nn3c(=O)cc(C)nc3s2)CC1`, for which the “% Inhibition @ 10 uM” value was -3.79%.
For `CCN(CC)C(=O)c1ccc(CS(=O)(=O)c2ccccc2C)o1` the value was -4.96%.
On to `Cc1ccc(C(C)C)c(OCC(O)CN2CCN(Cc3ccccc3)CC2)c1` (stereo not shown), for which the “% Inhibition @ 10 uM” value came out at 4.79%.
As for `C=CCOc1cccc(C2C(C(=O)c3ccc4c(c3)OCCO4)=C(O)C(=O)N2Cc2ccco2)c1` (stereo not shown), the “% Inhibition @ 10 uM” value was -2.74%.
With `N#CC1=C(N)N(c2nc[nH]n2)C2=C(C(=O)CCC2)C1c1cccc(Cl)c1` (stereo not shown) the figure was -4.6%; with `Cc1ccc2c(cnn2C(=O)CCC(=O)N2CCN(C)CC2)c1`, 5.39%; with `O=C1CCCC2=C1C(c1ccc(O)cc1)Nc1ccc3ncccc3c12` (stereo not shown), 0.937%.
For the compound `Cc1occc(=O)c1OC(=O)c1ccc(Cl)cc1`, the “% Inhibition @ 10 uM” value is -1.52%.
On to `CSc1ccc(C2c3c(oc4cc(C)cc(C)c4c3=O)C(=O)N2CCCOC(C)C)cc1` (stereo not shown), for which the “% Inhibition @ 10 uM” value turned out to be 4.83%.
Regarding `Cc1cc(C)nc(N2CCN(S(=O)(=O)c3ccc(F)cc3)CC2)n1`, the “% Inhibition @ 10 uM” value is listed as -6.74%.
`CN1CC2(C)CN(C(=O)c3ccccc3Cl)CC(C)(C1)C2`: the “% Inhibition @ 10 uM” value is recorded as -0.661%.
With `CCCN1Cc2cccc(C(=O)NC3CCCC3)c2C1=O`, the “% Inhibition @ 10 uM” value was found to be 1.23%.
Turning to `COc1ccc(CNC(=O)CCCN2C(=O)CSc3ncccc32)cc1`, the “% Inhibition @ 10 uM” value was -4.15%.
As for `CS(=O)(=O)C1=NN2C(=N)/C(=C\c3ccco3)C(=O)N=C2S1`, the “% Inhibition @ 10 uM” value is -7.21%.
As for `COc1ccc(C(=O)Nc2cc(Cl)ccc2Cl)cc1[N+](=O)[O-]`, the “% Inhibition @ 10 uM” value amounted to 0.467%.
With `O=C(c1ccc(Cl)cc1)C(CN1CCOCC1)c1ccccc1` (stereo not shown), the “% Inhibition @ 10 uM” value is reported as -0.233%.
With `CCN(Cc1ccccc1)C(=O)CSc1nc2cn(CC)nc2c(=O)n1CCc1ccccc1`, the “% Inhibition @ 10 uM” value was -4.55%.
Take `CCn1c(C(=O)N2CCC(Cc3ccccc3)CC2)cc2sccc21`: the “% Inhibition @ 10 uM” value is -1.37%.
`O=C1CNC(=O)/C1=C/c1ccc(Br)cc1`: the “% Inhibition @ 10 uM” value is -0.424%.
For `Cc1nn(-c2ccc(F)cc2)c(O)c1/C=N/c1ccccc1C(=O)O` the value was -4.03%; for `Cc1ccc(-c2nc(CSc3nc4ccncc4[nH]3)c(C)o2)cc1`, -2.59%.
For `CCN1CCCC1CNC(=O)c1nn(C)c2c1CS(=O)(=O)c1ccccc1-2` (stereo not shown) the value was 2.03%; for `CC(C)OCCCNS(=O)(=O)c1ccc2nc(O)ccc2c1`, 1.92%; for `Cc1ccc(N2C(=O)CSC23C(=O)Nc2ccccc23)cc1Cl` (stereo not shown), 4.32%.
As to `Cc1ccc(C(=O)N(Cc2nc(-c3ccccc3)no2)C(C)C)cc1C`, the “% Inhibition @ 10 uM” value is -1.24%.
Turning to `COc1ccc(C(=O)N2CCN(C(c3ccccc3)c3ccccc3)CC2)cc1`, the “% Inhibition @ 10 uM” value was determined as 1.7%.
Turning to `CCN(CC)S(=O)(=O)c1ccc(NC(=O)c2ccccc2C)cc1`, the “% Inhibition @ 10 uM” value was -7.46%.
